Reference: patent US12104178B2, “DHFR tunable protein regulation” (Obsidian Therapeutics, Inc., priority 2017, dated 2024)

B1: OT-RLuc-003: DD regulated Renilla luciferase, ligand Shield-1 (protein)
chain: [about 100 residues omitted]SGTSKVYDPEQRKRMITGPQWWARCKQMNVLDSFINYYDSEKHAENAVIFLHGNAASSYLWRHVVPHIEPVARCIIPDLIGMGKSGKSGNGSYRLLDHYKYLTAWFELLNLPKKIIFVGHDWGACLAFHYSYEHQDKIKAIVHAESVVDVIESWDEWPDIEEDIALIKSEEGEKMVLENNFFVETMLPSKIMRKLEPEEFAAYLEPFKEKGEVRRPTLSWPREIPLVKGGKPDVVQIVRNYNAYLRASDDLPKMFIESDPGFFSNAIVEGAKKFPNTEFVKVKGLHFSQEDAPDEMGKYIKSFVERVLKNEQ
B2: OT-IL12-003: FKBP-IL12 plasmid (protein)
chain: MCHQQLVISWFSLVFLASPLVA[about 100 residues omitted]SARNRQKRSIWELKKDVYVVELDWYPDAPGEMVVLTCDTPEEDGITWTLDQSSEVLGSGKTLTIQVKEFGDAGQYTCHKGGEVLSHSLLLLHKKEDGIWSTDILKDQKEPKNKTFLRCEAKNYSGRFTCWWLTTISTDLTFSVKSSRGSSDPQGVTCGAATLSAERVRGDNKEYEYSVECQEDSACPAAEESLPIEVMVDAVHKLKYENYTSSFFIRDIIKPDPPKNLQLKPLKNSRQVEVSWEYPDTWSTPHSYFSLTFCVQVQGKSKREKKDRVFTDKTSATVICRKNASISVRAQDRYYSSSWSEWASVPCSGGGGSGGGGSGGGGSRNLPVATPDPGMFPCLHHSQNLLRAVSNMLQKARQTLEFYPCTSEEIDHEDITKDKTSTVEACLPLELTKNESCLNSRETSFITNGSCLASRKTSFMMALCLSSIYEDLKMYQVEFKTMNAKLLMDPKRQIFLDQNMLAVIDELMQALNFNSETVPQKSSLEEPDFYKTKIKLCILLHAFRIRAVTIDRVMSYLNAS

Key:
Assay type in all cases: cell-based, human
[1] = tested on: HCT-116 cells; assay: DD regulated luciferase, western blot and luciferase activity; settings: 1 μM Shield-1 or 10 μM Trimethoprim, 24 h
Text: DD regulated luciferase can be used to track cells in vivo e.g. T cells. Firefly luciferase or Renilla luciferase may be utilized as the payload. HCT-116 cells were stably transduced with the constitutive (OT-RLuc-001) or DD regulated constructs (OT-RLuc-002, OT-RLuc-003, OT-RLuc-004, OT-RLuc-005 and OT-RLuc-006). […] Blots were also probed with anti-GAPDH antibody to ensure uniform protein loading in all samples. […] (FIG. 59A).
Ligand dependent activity of Renilla and firefly luciferase constructs was measured using coelentrazine and luciferin substrates respectively. […] Luciferase activity was measured as luminescence reading using a luminometer and the values were compared to control samples consisting of lysis buffer and substrate.

[2] = tested on: HEK293T cells; assay: FKBP-IL12 transient transfection, IL12 p40 ELISA; settings: 10 μM Shield-1 vs vehicle
Experimental: HEK293T cells were transiently transfected with 200 ng or 1 μg of FKBP-IL12 plasmids (OT-IL12-001 to OT-IL12-005), and subsequently treated with 10 μM Shield-1 or vehicle control for 6 hours. Culture media was collected from transfected cells and diluted 1:50 to measure IL12 levels using p40 ELISA. The stabilization ratio was defined as fold change in IL12 expression with ligand treatment compared to treatment with DMSO (i.e. in the absence of ligand) with the same construct. Stabilization ratio greater than 1 is desired.

[3] = tested on: IL12 receptor, STAT4; assay: HEK-Blue sensor cell functional IL12 assay; settings: media of Shield-1 treated cells
Experimental: HEK-Blue sensor cells (InvivoGen, San Diego, CA) were utilized to evaluate whether DD regulated IL12 is capable of regulating signaling downstream of IL12. In these cells, the IL12 receptor, STAT4 and downstream transcriptional elements are linked to a reporter gene such that IL12 signaling can be monitored. One million HEK 293T were transfected with 200 ng of OT-IL12-003 plasmid using Lipofectamine 2000 (Thermo Fisher Scientific, Waltham, MA). 48 hours after transfection, cells were treated with growth media containing 10 μM Shield-1, incubated for another 24 hours, following which, media was collected. 50,000 HEK 293 Blue sensor cells were plated onto 96 well plates and incubated overnight with media (at different dilutions) from Shield-1 treated OT-IL12-003 expressing HEK293T cells. […] Absorption was measured at 620 nm using a spectrophotometer. […] Functional IL12 concentrations were determined by comparing the optical density of each sample with IL12 standard curve.
The dependence of functional IL12 production on the dose of Shield-1 used was measured. […] Absorption was measured at 620 nm using a spectrophotometer. […] Functional IL12 concentrations were determined by comparing the optical density of each sample with IL12 standard curve.

| Molecule | Luciferase stabilization by western blot (FIG. 59A) [1] | Stabilization ratio [2] | Functional IL12 (HEK-Blue, FIG. 31A, 31B) [3] |
| --- | --- | --- | --- |
| B1 | strong Shield-1 dependent stabilization of Renilla luciferase |  |  |
| B2 |  | 1.21 | Measurable levels of functional IL12 were reached with 640-fold dilutions |
